Where a chain is given by its changes, count along the chain named. The list shows a part of the results.

Among the data in article PMC9911399, “Two distinct binding modes provide the RNA-binding protein RbFox with extraordinary sequence specificity” are binding signal values, retold here.

The chains are these.
T1: RBFOX1 RRM (Homo sapiens, UniProt Q9NWB1 109-208)
T1 sequence: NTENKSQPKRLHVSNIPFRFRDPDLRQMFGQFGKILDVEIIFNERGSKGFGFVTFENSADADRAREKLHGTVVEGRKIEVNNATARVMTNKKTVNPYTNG

B1: AGACGCG (DNA:RNA)
RNA: GGGAGACCGGAAUUCAGAUUGUCCAGACGCGUUAAAUCCCGUCGUAGCCACCA
DNA 1: CAATCTGAATTCCGGTCTCCC
DNA 2: TGGTGGCTACGACGGGATT
B2: AUUGUAA (DNA:RNA)
RNA: B1 RNA with G26U, A27U, C28G, G29U, C30A, G31A
DNA 1: CAATCTGAATTCCGGTCTCCC
DNA 2: TGGTGGCTACGACGGGATT
B3: GUCUGUA (DNA:RNA)
RNA: B1 RNA with A25G, G26U, A27C, C28U, C30U, G31A
DNA 1: CAATCTGAATTCCGGTCTCCC
DNA 2: TGGTGGCTACGACGGGATT
B4: UCGAUGC (DNA:RNA)
RNA: GGGAGACCGGAAUUCAGAUUGUCCUCGAUGCUUAAAUCCCGUCGUAGCCACCA
DNA 1: CAATCTGAATTCCGGTCTCCC
DNA 2: TGGTGGCTACGACGGGATT
B5: ACAUUAG (DNA:RNA)
RNA: B1 RNA with G26C, C28U, G29U, C30A
DNA 1: CAATCTGAATTCCGGTCTCCC
DNA 2: TGGTGGCTACGACGGGATT
B6: UGCGACA (DNA:RNA)
RNA: B1 RNA with A25U, A27C, C28G, G29A, G31A
DNA 1: CAATCTGAATTCCGGTCTCCC
DNA 2: TGGTGGCTACGACGGGATT
B7: GUGGUGC (DNA:RNA)
RNA: B4 RNA with U25G, C26U, A28G
DNA 1: CAATCTGAATTCCGGTCTCCC
DNA 2: TGGTGGCTACGACGGGATT
B8: AGUCGUG (DNA:RNA)
RNA: B1 RNA with A27U, C30U
DNA 1: CAATCTGAATTCCGGTCTCCC
DNA 2: TGGTGGCTACGACGGGATT
B9: AUAAUCC (DNA:RNA)
RNA: B1 RNA with G26U, C28A, G29U, G31C
DNA 1: CAATCTGAATTCCGGTCTCCC
DNA 2: TGGTGGCTACGACGGGATT
B10: UUGAAGA (DNA:RNA)
RNA: B4 RNA with C26U, U29A, C31A
DNA 1: CAATCTGAATTCCGGTCTCCC
DNA 2: TGGTGGCTACGACGGGATT
B11: GAAGCGC (DNA:RNA)
RNA: B4 RNA with U25G, C26A, G27A, A28G, U29C
DNA 1: CAATCTGAATTCCGGTCTCCC
DNA 2: TGGTGGCTACGACGGGATT
B12: GUCUAUC (DNA:RNA)
RNA: B4 RNA with U25G, C26U, G27C, A28U, U29A, G30U
DNA 1: CAATCTGAATTCCGGTCTCCC
DNA 2: TGGTGGCTACGACGGGATT
B13: AUACUAG (DNA:RNA)
RNA: B1 RNA with G26U, G29U, C30A
DNA 1: CAATCTGAATTCCGGTCTCCC
DNA 2: TGGTGGCTACGACGGGATT
B14: AGGAUGA (DNA:RNA)
RNA: B4 RNA with U25A, C26G, C31A
DNA 1: CAATCTGAATTCCGGTCTCCC
DNA 2: TGGTGGCTACGACGGGATT
B15: CAAGCAG (DNA:RNA)
RNA: B1 RNA with A25C, G26A, C28G, G29C, C30A
DNA 1: CAATCTGAATTCCGGTCTCCC
DNA 2: TGGTGGCTACGACGGGATT
B16: UCUCUGU (DNA:RNA)
RNA: B4 RNA with G27U, A28C, C31U
DNA 1: CAATCTGAATTCCGGTCTCCC
DNA 2: TGGTGGCTACGACGGGATT
B17: UUGGAUA (DNA:RNA)
RNA: B4 RNA with C26U, A28G, U29A, G30U, C31A
DNA 1: CAATCTGAATTCCGGTCTCCC
DNA 2: TGGTGGCTACGACGGGATT
B18: ACUAAAU (DNA:RNA)
RNA: B4 RNA with U25A, G27U, U29A, G30A, C31U
DNA 1: CAATCTGAATTCCGGTCTCCC
DNA 2: TGGTGGCTACGACGGGATT
B19: ACCGUUG (DNA:RNA)
RNA: B1 RNA with G26C, A27C, C28G, G29U, C30U
DNA 1: CAATCTGAATTCCGGTCTCCC
DNA 2: TGGTGGCTACGACGGGATT
B20: CGAAUCU (DNA:RNA)
RNA: B1 RNA with A25C, C28A, G29U, G31U
DNA 1: CAATCTGAATTCCGGTCTCCC
DNA 2: TGGTGGCTACGACGGGATT
B21: UUUAAGU (DNA:RNA)
RNA: B4 RNA with C26U, G27U, U29A, C31U
DNA 1: CAATCTGAATTCCGGTCTCCC
DNA 2: TGGTGGCTACGACGGGATT
B22: GGGAUAG (DNA:RNA)
RNA: B4 RNA with U25G, C26G, G30A, C31G
DNA 1: CAATCTGAATTCCGGTCTCCC
DNA 2: TGGTGGCTACGACGGGATT
B23: UCCCUUC (DNA:RNA)
RNA: B4 RNA with G27C, A28C, G30U
DNA 1: CAATCTGAATTCCGGTCTCCC
DNA 2: TGGTGGCTACGACGGGATT
B24: AAACGGA (DNA:RNA)
RNA: B1 RNA with G26A, C30G, G31A
DNA 1: CAATCTGAATTCCGGTCTCCC
DNA 2: TGGTGGCTACGACGGGATT
B25: ACGCCGC (DNA:RNA)
RNA: B4 RNA with U25A, A28C, U29C
DNA 1: CAATCTGAATTCCGGTCTCCC
DNA 2: TGGTGGCTACGACGGGATT
B26: UCACAGU (DNA:RNA)
RNA: B4 RNA with G27A, A28C, U29A, C31U
DNA 1: CAATCTGAATTCCGGTCTCCC
DNA 2: TGGTGGCTACGACGGGATT
B27: CCAUGGA (DNA:RNA)
RNA: B1 RNA with A25C, G26C, C28U, C30G, G31A
DNA 1: CAATCTGAATTCCGGTCTCCC
DNA 2: TGGTGGCTACGACGGGATT
B28: UCCUUAG (DNA:RNA)
RNA: B4 RNA with G27C, A28U, G30A, C31G
DNA 1: CAATCTGAATTCCGGTCTCCC
DNA 2: TGGTGGCTACGACGGGATT
B29: AAGGCCU (DNA:RNA)
RNA: B1 RNA with G26A, A27G, C28G, G29C, G31U
DNA 1: CAATCTGAATTCCGGTCTCCC
DNA 2: TGGTGGCTACGACGGGATT
B30: UGCGCGC (DNA:RNA)
RNA: B4 RNA with C26G, G27C, A28G, U29C
DNA 1: CAATCTGAATTCCGGTCTCCC
DNA 2: TGGTGGCTACGACGGGATT
B31: GCCAUGC (DNA:RNA)
RNA: B4 RNA with U25G, G27C
DNA 1: CAATCTGAATTCCGGTCTCCC
DNA 2: TGGTGGCTACGACGGGATT

The assay concerns the target T1, RBFOX1 RRM. As to the kind of experiment: EMSA; HiTS-Eq, 1 nM pool, 10 min; buffer printed only for the single-RNA assays: 10 mM Tris pH 7.5, 150 mM NaCl, 3.4 mM EDTA, 0.001% NP-40, 30 C. Particulars: tags: His6 N-terminal (pET28a); label: 5' 32P. The method, boiled down: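 These values rest on relative association constants, computed from read-count changes of each RNA species versus the control reaction and normalised to the cognate motif. Reads came from free RNA recovered by 8% native PAGE after purified RbFox RRM (wild type or mutant) at increasing concentrations was equilibrated for 10 min in 50 µL with 1 nM of a 5′-radiolabelled pool with 7 randomized nucleotides and DNA-annealed flanks.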
Background: Mobility shift assays separate free from complexed probe on a gel.
Turning to B1, the binding signal was 0.00882 KA relative to UGCAUGU.

Take B2: the binding signal is 0.00779 KA relative to UGCAUGU.

Turning to B3, the binding signal is 0.0147 KA relative to UGCAUGU.

For the molecule B4, the binding signal is 0.0137 KA relative to UGCAUGU.

On to B5, for which the binding signal is 0.00404 KA relative to UGCAUGU.

As for B6, the binding signal is 0.0078 KA relative to UGCAUGU.

For B7, the binding signal is 0.0202 KA relative to UGCAUGU.

Regarding B8, the binding signal was 0.0125 KA relative to UGCAUGU.

For B9, the binding signal was 0.00162 KA relative to UGCAUGU.

In the case of B10, the binding signal is 0.0156 KA relative to UGCAUGU.

For B11, the binding signal was 0.0138 KA relative to UGCAUGU.

In the case of B12, the binding signal was 0.0115 KA relative to UGCAUGU.

With B13, the binding signal is 0.00435 KA relative to UGCAUGU.

Consider B14, for which the binding signal was 0.0193 KA relative to UGCAUGU.

Turning to B15, the binding signal was 0.0052 KA relative to UGCAUGU.

As for B16, the binding signal is 0.0181 KA relative to UGCAUGU.

B17: the binding signal was 0.0092 KA relative to UGCAUGU.

On to B18, for which the binding signal was 0.00155 KA relative to UGCAUGU.

On to B19, for which the binding signal was 0.0109 KA relative to UGCAUGU.

On to B20, for which the binding signal is 0.0102 KA relative to UGCAUGU.

Regarding B21, the binding signal was 0.0116 KA relative to UGCAUGU.

As for B22, the binding signal is 0.0337 KA relative to UGCAUGU.

For the molecule B23, the binding signal is 0.00495 KA relative to UGCAUGU.

Consider B24, for which the binding signal was 0.0022 KA relative to UGCAUGU.

For the molecule B25, the binding signal is 0.0107 KA relative to UGCAUGU.

On to B26, for which the binding signal is 0.00466 KA relative to UGCAUGU.

B27: the binding signal was 0.0121 KA relative to UGCAUGU.

As to B28, the binding signal was 0.00853 KA relative to UGCAUGU.

In the case of B29, the binding signal was 0.0074 KA relative to UGCAUGU.

With B30, the binding signal is 0.0256 KA relative to UGCAUGU.

With B31, the binding signal is 0.0131 KA relative to UGCAUGU.
